Values marked as one replicate rest on one cluster of the flow cell; about a third of the high ones do not repeat.
Test system: ATP
Assay: switch fluorescence ratio, 500 uM ATP over buffer (Cy3 cluster intensity, sum of 5 cycles each) (fold (ratio)); higher = stronger signal-on switching upon ATP binding; sequences stand for … in TCGTCGGCAGCGTCAGATGTGTATAAGAGACAGTTTTTTTTTTTTTTTTTTTTTTTTT…TC
Conditions: aptamer strand: ATP DNA aptamer (quencher-CACCTGGGGGAGTATTGCGGAGGAAGG + anchor), 100 nM annealed; ATP concentration: 500 uM; one replicate
Outline: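 Cy3-labelled switching-strand clusters on a modified Illumina MiSeq flow-cell were annealed to 100 nM quencher-labelled ATP aptamer, imaged in selection buffer, then imaged after 15 min with 500 uM ATP at 22 °C. Five buffer/ATP cycles ran, with NaOH stripping and re-annealing between them. The fluorescence ratio is summed target-cycle over summed buffer-cycle Cy3 intensity per cluster, averaged per switch-domain sequence. Clusters outside 100-1000 RFU were excluded.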
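Also: ATP exposure 15 min at 22 °C before imaging.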

Sequence	switch fluorescence ratio
ACGCCTTTTG	0.956
TCCTTTATTT	0.982
CGTCTGACTA	1.07
TTCGGGCATC	1.06
GTCTTAATGG	0.994
CATAGGGCAT	1.03
CGACAAGGAG	1.02
TGATAGC	1
TGCTTCTAGA	1.05
AGATGTTTCG	1.02
TCGATTACGT	1.02
TCATGTAGGA	1
GTCGCAAGCT	1.32
TCATTACTTA	1
CACTTTCATT	1.04
GCCCGCAGGT	1.42
TTTTCTCTAA	0.98
CTAACCCATT	1.03
GTAATAACTC	1.12
AGGACCAATA	1.06
TACCAATCCA	1.39
AGGCATCTAG	0.989
CTACGGTCCA	1.03

Sequence	switch fluorescence ratio
TGCTTAAATC	1.16
TAGTTACAC	1.02
CGAAATTGGT	0.961
CGTAACGTGC	1.05
TTTCCACGAT	1.05
GCGCTTACCA	1.02
TGCACTTTGG	1.05
GGGGAGCCAA	0.981
GCACGCAAAG	1.08
GAGGTCTGT	0.963
GGGCTTGGCC	1.02
CGGTAAAGTG	1
ATGGAATGAT	1.06
CGACCCCGTA	1.06
TACTTCTAGT	0.972
ACCGCGGGCA	0.972
TCACATCGTC	1.01
CGTCGGTTCA	1.04
GTCTGTAAAA	0.993
TGGCGATCTT	1
ACCTCGAATC	1.16
AAAAAGGACG	0.945
ACGTGGCGTA	0.942

Sequence	switch fluorescence ratio
GCGAGGCAGT	1.94
TCGGTCGACT	1.02
AGTCGTCCCT	1.01
TAAGGGTGTT	1.04
TTAAAACCCA	1.39
TCTAACTTCA	1.06
CGCAGCATAT	3.42
CGCCTTGGTA	1.01
CAGTTGAGGG	0.977
CTAAGAGAAA	0.975
CGAGGTTCGC	0.984
GCGGTCATGC	0.98
TTCAATAATC	1.65
CTGTTTTGTT	0.918
CCGTGTGACA	0.991
CAGTATAGGA	1.01
AGTCGGTTGA	1.04
GGTCGGTTAA	1.01
CACGAGAGTT	1.03
AATTCGATGT	0.967
GCGCAGACCG	0.998
CTGGTGTACG	0.994
GGAGCAGGG	1.03

Sequence	switch fluorescence ratio
GGCGGGTTCT	1.02
CAGGCCAAGT	1.03
GCGGTTATGA	1.03
CGACCCGACC	1.25
CGCGGGTGC	1.16
AAGCTTATTT	0.977
TAAGAAGTGA	1.01
GGTCTGAGTT	1.02
AGGTGCAACA	1.01
TTGGTTCCCC	1.07
GACTTCAACG	1.01
GGGATCTGCA	0.988
CAATTGGAGA	0.952
CCACGAGTTT	0.99
GCACTTTTGC	1.06
CCTGTGTGAG	0.995
TTTTCGTTAG	1.01
AAGGCACCCT	1.05
GGCGGTCGG	0.983
GGGGTCCCTC	0.984
ATTGAGTGCG	1.03
AGTTATCCA	0.993
CGGCGCAGGA	1.09

Sequence	switch fluorescence ratio
CAGCCCTACT	1.14
TTGGCCCTGT	0.993
ATAATACCTG	1.02
CAGCTGGCCG	1.06
TATTCTGCTG	1.04
GCCATTTGGC	0.991
AGTTCGCTT	1.02
CGCATCCTTC	1.48
CCGTATTGCA	1.34
TGTCCATAGG	1
CAAAAGAATC	0.986
TATGGAGATG	1.01
CGTGACACCG	0.97
AAGTAAAGTG	1.09
TGCTACGGGG	1.08
GATGGTAGAT	0.992
CCAATTCCCA	1.01
GGGAAGTCG	1.05
CGGACCAGAA	1.06
TTTCACGTG	1.01
CTATACCGGT	0.985
AGCTGTCGGT	1.01
TCCGTCTGTC	1.12

Sequence	switch fluorescence ratio
CGGGTAAAAC	1.03
TCGGGCTTAA	1.02
GCGGATGGCT	0.99
CCGCGTAGGT	1.24
CTAAATTAGG	0.983
CACAGTCACA	1.14
GCGAGCACGA	1.02
TAATTTCGTT	1.02
CCGCACAAGG	2.88
GGCGATCAAG	0.983
TACCGAGATC	1.13
AGACCGTAAA	1.51
CCCCGCGCGG	1.03
GGCGGTGACT	1.03
ACCCATACCT	1.37
AACTACGATT	1.09
TGGTAGTGAT	1.01
GCGAATGTCA	0.972
TATCGGATCA	0.999
GGCTTAGGTT	0.98
AGAGCATCCT	1.08
AGAATTGC	1.07
CGGGATGGT	0.965

Sequence	switch fluorescence ratio
TTTAAAAGCG	0.965
GCCGTGGTTC	1.03
GATCCTGGTT	1.07
CACAAGGGTC	0.969
TTGCTAAATT	1.03
CAAATTTCGG	0.98
GATGGGAACT	1.01
GGTAGCAGGC	0.791
AAAAACTTCA	1.14
GCCGACGTCC	1.11
AGACGGACCT	1.18
AAAATGCGG	1.01
CTCTCTATAT	1.05
TGGTTTATCG	1
TATCATGCAT	1.44
TAATTGCTTA	1.02
GCGTAGGCAA	1.01
AAGTTTCGTC	1.02
GCTATTGGAC	1.01

From the supplement of paper PMC10126150
